Measured values as given in publication PMC11414387.
No constants are given. Whether binding was seen depends on the method and setting. In cells and extracts the contact can be indirect. Some binding calls cover weakened binding; strength is not graded here. For some of these results: Tags and fused reporters may be left off the sequences shown.

Amino acid sequences for entries named in this document (tags omitted). A change or cut given only in a name is not applied to a line headed by its entry. Chains listed by the source or under a name are the forms on record and can include a tag or linker.
UniProt P35222: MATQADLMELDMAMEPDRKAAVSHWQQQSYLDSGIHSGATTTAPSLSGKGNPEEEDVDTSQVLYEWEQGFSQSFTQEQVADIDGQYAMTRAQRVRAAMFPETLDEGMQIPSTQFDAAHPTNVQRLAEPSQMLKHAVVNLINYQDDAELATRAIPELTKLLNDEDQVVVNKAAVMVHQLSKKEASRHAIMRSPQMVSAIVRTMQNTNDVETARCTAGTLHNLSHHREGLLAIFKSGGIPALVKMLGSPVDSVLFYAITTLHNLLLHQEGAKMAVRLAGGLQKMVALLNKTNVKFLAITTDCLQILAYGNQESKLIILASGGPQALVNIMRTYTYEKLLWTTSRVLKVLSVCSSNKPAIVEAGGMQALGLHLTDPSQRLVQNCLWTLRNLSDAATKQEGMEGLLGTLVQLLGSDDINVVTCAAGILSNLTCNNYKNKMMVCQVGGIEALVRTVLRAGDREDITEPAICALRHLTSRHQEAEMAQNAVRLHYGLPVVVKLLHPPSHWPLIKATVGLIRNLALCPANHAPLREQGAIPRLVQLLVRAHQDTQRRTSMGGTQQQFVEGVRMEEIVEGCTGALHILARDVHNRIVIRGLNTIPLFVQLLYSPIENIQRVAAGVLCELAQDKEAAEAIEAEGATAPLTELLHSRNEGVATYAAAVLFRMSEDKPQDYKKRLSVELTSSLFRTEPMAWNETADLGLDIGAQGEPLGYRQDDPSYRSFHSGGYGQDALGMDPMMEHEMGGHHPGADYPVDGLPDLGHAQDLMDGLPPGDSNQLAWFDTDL
β-catenin S33A-37A double-point mutant (P35222, form named): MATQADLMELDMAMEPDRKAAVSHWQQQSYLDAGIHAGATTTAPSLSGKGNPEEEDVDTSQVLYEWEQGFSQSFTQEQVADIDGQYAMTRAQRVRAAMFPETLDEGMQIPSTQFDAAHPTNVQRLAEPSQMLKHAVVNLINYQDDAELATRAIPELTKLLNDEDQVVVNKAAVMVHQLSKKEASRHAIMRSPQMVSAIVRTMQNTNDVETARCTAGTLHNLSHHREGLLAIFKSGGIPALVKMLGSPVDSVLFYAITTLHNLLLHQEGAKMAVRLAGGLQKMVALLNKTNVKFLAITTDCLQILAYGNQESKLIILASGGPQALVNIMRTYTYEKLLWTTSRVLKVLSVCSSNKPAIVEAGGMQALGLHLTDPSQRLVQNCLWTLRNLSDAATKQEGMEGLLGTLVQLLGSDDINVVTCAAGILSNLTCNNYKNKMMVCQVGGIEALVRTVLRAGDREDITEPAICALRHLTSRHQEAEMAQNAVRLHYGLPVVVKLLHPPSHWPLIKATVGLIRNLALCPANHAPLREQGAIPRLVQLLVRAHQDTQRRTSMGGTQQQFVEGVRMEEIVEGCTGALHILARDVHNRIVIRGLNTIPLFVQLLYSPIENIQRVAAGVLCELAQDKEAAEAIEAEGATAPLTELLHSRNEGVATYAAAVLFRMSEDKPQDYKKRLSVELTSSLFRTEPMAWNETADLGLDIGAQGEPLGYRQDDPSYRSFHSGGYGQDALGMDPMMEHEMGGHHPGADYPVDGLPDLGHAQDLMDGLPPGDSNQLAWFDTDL
UniProt Q15208: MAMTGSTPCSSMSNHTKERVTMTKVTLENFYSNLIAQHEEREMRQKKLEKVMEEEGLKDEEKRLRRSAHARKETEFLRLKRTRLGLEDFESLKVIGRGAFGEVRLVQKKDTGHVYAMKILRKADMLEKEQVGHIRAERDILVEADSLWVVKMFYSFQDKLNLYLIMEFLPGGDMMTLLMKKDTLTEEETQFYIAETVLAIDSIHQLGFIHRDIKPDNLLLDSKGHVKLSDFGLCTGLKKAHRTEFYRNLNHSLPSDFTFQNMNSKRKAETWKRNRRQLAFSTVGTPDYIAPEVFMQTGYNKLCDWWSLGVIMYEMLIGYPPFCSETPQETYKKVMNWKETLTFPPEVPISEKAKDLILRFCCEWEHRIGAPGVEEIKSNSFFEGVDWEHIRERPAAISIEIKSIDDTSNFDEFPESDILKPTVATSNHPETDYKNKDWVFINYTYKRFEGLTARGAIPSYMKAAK

Tests used:
Flag-FBXO11 = biological target: T1, Flag-FBXO11 (UniProt Q86XK2); assay: co-IP; IP with exogenous (transfected, tagged) proteins; lysate with antibody overnight at 4°C, protein A/G magnetic beads, Western blot
T1 sequence: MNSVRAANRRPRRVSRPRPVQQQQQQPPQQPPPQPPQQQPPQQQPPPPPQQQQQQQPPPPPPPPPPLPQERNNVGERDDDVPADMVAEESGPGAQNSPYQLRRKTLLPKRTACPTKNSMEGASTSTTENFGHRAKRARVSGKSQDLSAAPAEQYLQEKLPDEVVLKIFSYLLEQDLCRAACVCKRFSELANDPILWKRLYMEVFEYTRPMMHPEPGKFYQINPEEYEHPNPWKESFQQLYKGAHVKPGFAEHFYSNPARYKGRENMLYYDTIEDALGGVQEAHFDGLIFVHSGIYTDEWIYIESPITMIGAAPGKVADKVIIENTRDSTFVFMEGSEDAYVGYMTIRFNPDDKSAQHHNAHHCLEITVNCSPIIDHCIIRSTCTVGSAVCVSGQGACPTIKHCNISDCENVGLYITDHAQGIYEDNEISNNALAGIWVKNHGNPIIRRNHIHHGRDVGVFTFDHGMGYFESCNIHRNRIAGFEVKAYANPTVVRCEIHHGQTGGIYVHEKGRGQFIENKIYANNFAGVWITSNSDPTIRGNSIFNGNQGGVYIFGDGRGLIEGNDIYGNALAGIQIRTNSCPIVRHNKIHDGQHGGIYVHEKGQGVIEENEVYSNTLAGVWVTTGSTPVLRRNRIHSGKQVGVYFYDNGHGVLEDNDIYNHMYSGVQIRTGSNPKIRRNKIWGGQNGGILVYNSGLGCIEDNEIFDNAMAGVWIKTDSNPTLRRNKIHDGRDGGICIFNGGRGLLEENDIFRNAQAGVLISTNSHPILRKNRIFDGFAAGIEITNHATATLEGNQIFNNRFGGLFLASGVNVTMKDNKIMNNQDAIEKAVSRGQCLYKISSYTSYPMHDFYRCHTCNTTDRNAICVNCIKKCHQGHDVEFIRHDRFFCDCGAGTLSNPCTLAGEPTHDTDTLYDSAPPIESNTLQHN

[1] = biological target: β-catenin (endogenous) (human (endogenous in the human cell lines of the paper; line not named for this experiment)) (UniProt P35222); assay: co-IP; IP with endogenous proteins, cells not treated with MG132; lysate with antibody overnight at 4°C, protein A/G magnetic beads, Western blot
[2] = biological target: T2, FBXO11 (endogenous) (human (endogenous in the human cell lines of the paper; line not named for this experiment)) (UniProt Q86XK2); assay: co-IP; IP with endogenous proteins; lysate with antibody overnight at 4°C, protein A/G magnetic beads, Western blot; for NDR1 with β-catenin cells treated with MG132
T2 sequence: T1 sequence

Substance | binding (Flag-FBXO11) | binding [1] | binding [2]
β-catenin S33A-37A double-point mutant (from UniProt P35222 1-781) | no binding | – | –
β-catenin S33A (from UniProt P35222 1-781) | no binding | – | –
Myc-NDR1 (from UniProt Q15208 1-465) (enzyme) | binds | – | –
NDR1 (endogenous) (from UniProt Q15208 1-465) (enzyme) | – | no binding (condition: without MG132 treatment) | binds
His-beta-catenin (from UniProt P35222 1-781) | binds | – | –
β-catenin S37A (from UniProt P35222 1-781) | no binding | – | –
